The other results are listed elsewhere or left out.
Key:
Experiment in all cases: glycan array binding signal (z-score within array); higher = stronger binding
Details in all cases: glycan notation: IUPAC condensed, linker removed
[1] = molecular target: Neu5Gc(a2-8)Neu5Gc(a2-3)Gal(b1-4)GlcNAc(b1-3)Gal(b1-4)GlcNAc
Procedure, shortened: (§1)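 From the Consortium for Functional Glycomics database, 3228 arrays were curated, keeping only those whose protein sequence was available. Binding is given as a within-array Z-score averaged across arrays sharing a protein sequence and across linkers. Negative Z-scores can be read as non-binding.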

[2] = molecular target: Neu5Gc(a2-8)Neu5Gc(a2-6)Gal(b1-4)GlcNAc
Procedure, shortened: as §1

[3] = molecular target: Neu5Gc(b2-6)Gal(b1-4)GlcNAc
Procedure, shortened: as §1

B1: HML-Native (Hypnea musciformis), P84871 (protein)
chain: QKFCTLDIAPVCCQIVIGGGMYTAGNACMCEGFVSGVGRCENPKECPCTREAQIPSCCSSRWGLVSVTGKCACDCLGGTVAFPEPCPSPY
With B1 the “glycan array binding signal (z-score)” value [1] was -0.171, the “glycan array binding signal (z-score)” value [2] was -0.275 and the “glycan array binding signal (z-score)” value [3] was -0.289.

Reference: the supplement of paper PMC8728848
